Data: paper PMC4336329 (PLoS ONE, 2015)
The campaign covered roughly 310,000 compounds. About 14,000 (4.5%) showed an effect of 50% or more. Effects have a minus sign here. Some of the results follow.

The compounds below were run against human ether-à-go-go-related gene (hERG) potassium channel (human, UniProt Q12809) (assay: primary screen, population patch clamp on CHO cells stably expressing hERG).
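Further: peak tail current of the secondary pulse compared with the same well before compound.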

Chain of human ether-à-go-go-related gene (hERG) potassium channel (Q12809 whole entry, looked up): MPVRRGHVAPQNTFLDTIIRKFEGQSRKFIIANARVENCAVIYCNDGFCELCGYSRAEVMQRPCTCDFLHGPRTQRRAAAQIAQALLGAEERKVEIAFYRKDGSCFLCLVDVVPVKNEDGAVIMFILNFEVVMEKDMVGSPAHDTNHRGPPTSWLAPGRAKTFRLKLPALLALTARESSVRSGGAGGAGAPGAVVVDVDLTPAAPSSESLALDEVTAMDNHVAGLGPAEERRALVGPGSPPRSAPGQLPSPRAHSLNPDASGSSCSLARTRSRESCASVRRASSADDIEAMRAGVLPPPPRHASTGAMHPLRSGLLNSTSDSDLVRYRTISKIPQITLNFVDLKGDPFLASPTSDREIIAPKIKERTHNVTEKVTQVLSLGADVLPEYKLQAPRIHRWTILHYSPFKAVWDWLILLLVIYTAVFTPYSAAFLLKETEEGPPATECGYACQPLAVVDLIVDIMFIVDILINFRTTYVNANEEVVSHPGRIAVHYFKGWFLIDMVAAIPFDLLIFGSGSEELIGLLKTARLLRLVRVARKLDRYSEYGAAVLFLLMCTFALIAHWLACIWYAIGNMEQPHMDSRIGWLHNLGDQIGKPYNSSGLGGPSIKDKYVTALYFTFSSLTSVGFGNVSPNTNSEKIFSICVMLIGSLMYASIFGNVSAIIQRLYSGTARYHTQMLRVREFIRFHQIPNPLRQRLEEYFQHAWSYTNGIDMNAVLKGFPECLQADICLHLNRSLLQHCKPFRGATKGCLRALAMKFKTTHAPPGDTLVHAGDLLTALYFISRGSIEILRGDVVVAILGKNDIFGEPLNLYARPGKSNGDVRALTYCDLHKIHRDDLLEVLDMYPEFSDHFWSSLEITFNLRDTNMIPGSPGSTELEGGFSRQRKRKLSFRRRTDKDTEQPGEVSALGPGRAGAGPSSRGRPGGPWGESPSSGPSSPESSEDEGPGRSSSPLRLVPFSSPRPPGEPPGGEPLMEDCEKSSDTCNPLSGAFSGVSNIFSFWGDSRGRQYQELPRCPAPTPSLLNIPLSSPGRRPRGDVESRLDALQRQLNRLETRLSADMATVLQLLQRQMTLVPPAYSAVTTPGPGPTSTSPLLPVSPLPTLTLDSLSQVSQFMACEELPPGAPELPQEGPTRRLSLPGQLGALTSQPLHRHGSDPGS

SMILES | hERG current change (%, negative = inhibition) at 10uM [%]
Cc1cc(=O)c(C(=O)O)nn1-c1ccccc1 | 5.86
CCOC(=O)C1=C(C)NC(C)=C(C(=O)OCC)C1C(=O)OCC(=O)NCCc1ccc(S(N)(=O)=O)cc1 | 10
Cc1cc(C)nc(NS(=O)(=O)c2ccc(NC(=O)c3snnc3C)cc2)n1 | 13.3
S=C(NCc1cccnc1)Nc1ccc(Cl)cc1Cl | 4.6
Cc1ccc(C(=O)COC(=O)c2ccc(Br)o2)cc1C | 2.78
COc1ccccc1-c1nc(COc2ccc(Cl)cc2Cl)no1 | 12.8
CC(C)OC(=O)c1cccc(NC(=O)c2ccccc2)c1 | -28.6
NS(=O)(=O)c1ccc(NCC2COc3ccccc3O2)c([N+](=O)[O-])c1 (stereo not shown) | 6.02
Brc1ccc(CNc2cc3c(cc2Br)OCCO3)cc1 | 31.3
COc1cccc(-n2c(=O)c3sccc3n(CC(=O)NC3CCCCC3)c2=O)c1 | 7.52
Cc1ccc2nc(-c3ccccc3)c(CN3CCSCC3)n2c1 | -28.4
COc1cccc(CNS(=O)(=O)c2ccc3c(c2)N(C)CCO3)c1 | -5.83
CC(C)(O)c1cn(-c2nonc2N)nn1 | -2.57
O=C(C/C=N/OCc1c(Cl)cccc1Cl)c1ccccc1 | -7.98
CN(C)S(=O)(=O)N(CC(=O)NCc1ccccc1)c1ccccc1 | 1.87
CCOc1ccc(N2CC(O)Cn3c2nc2c3c(=O)n(CCCc3ccccc3)c(=O)n2C)cc1 (stereo not shown) | -5.28
O=C(N/N=C/c1ccc(OC2CSC2)cc1)c1ccccc1 | -13.6
C[C@]12CC(=O)CC1CCC1C2CC[C@@]2(C)C1CC[C@@H]2O (stereo partly shown) | 4.2
Cc1nc2scc(-c3ccccc3)c2c(=O)o1 | -12.7
CN(CC(=O)Nc1ccc(Cl)cc1)S(=O)(=O)c1ccc2c(c1)n(C)c(=O)c(=O)n2C | 16.3
COc1ccc(S(=O)(=O)NCCC(=O)OCC(=O)c2ccc[nH]2)cc1[N+](=O)[O-] | -30.2
Cc1ccc(C(C)C)c(Oc2nnnn2-c2ccccc2)c1 | 14.2

SMILES | hERG current change (%, negative = inhibition) at 10uM [%]
Cc1cccc(N2CCN(c3nnnn3-c3ccccc3)CC2C)c1 (stereo not shown) | -10.8
O=C(CSc1cc(Cl)ccc1Cl)NCC1CCCO1 (stereo not shown) | -16.8
CCOP(=O)(OCC)C(Nc1ccccc1)c1ccco1 (stereo not shown) | 19.7
CC(=O)c1cccc(NC(=O)N2C3CCC2CC(O)(c2cccnc2)C3)c1 (stereo not shown) | 7.47
CCOC(=O)c1c(NC(=O)c2ccncc2)sc(C)c1C | 11.1
CCOc1cc(NCCN2CCOCC2)c([N+](=O)[O-])cc1OCC | -7.79
O=C(N/N=C\c1ccc(CNS(=O)(=O)c2ccccc2)o1)C(=O)Nc1ccc(F)cc1 | -22.3
COC(=O)CC1(C(=O)OC)Oc2ccccc2C(=O)N1c1ccc(F)cc1F (stereo not shown) | 6.4
COCc1cc(CNC(=O)C2CCC(=O)N(Cc3ccccc3OC)C2)[nH]n1 (stereo not shown) | 16.8
CCOC(=O)c1nnn(-c2nonc2N)c1COc1cc(C)c(Cl)c(C)c1 | 6.59
CCc1nn(CC(=O)N2CCC(C)CC2)c(=O)c2cccn12 | 19.4
O=C(Oc1ccccc1C(=O)Oc1ccccc1)c1cccnc1 | -5.85
C=C1CCC[C@]2(C)C[C@H]3OC(=O)C(CNCC(OC)OC)[C@H]3CC12 (stereo partly shown) | 20.1
CCC(=O)c1cn(Cc2ccc(C#N)cc2)c2ccccc12 | -71.8
CCCCCCCC(=O)Nc1cc(C(=O)NCCC)ccc1N1CCC2(CC1)CC(c1ccccc1)=NO2 | -20.9
COc1cc(NC(=O)CSc2cc(C)c3cc(C)cc(C)c3n2)c(C(=O)O)cc1OC | 10.7
C=CCN(c1ccc(C(=O)NCCc2ccccc2)cc1)S(C)(=O)=O | -6.23
CC(C)Oc1ccc(S(=O)(=O)N2CCOCC2)cc1NC(=O)C1CSC2(C)CCC(=O)N12 (stereo not shown) | -7.56
Cc1c(C(c2ccc(Cl)cc2Cl)c2c(O)c3ccccc3oc2=O)c(=O)n(-c2ccccc2)n1C (stereo not shown) | -19.3
O=S(=O)(NC1CCCCCCC1)c1ccc(F)cc1 | 0.036
O=C(C1CCN(Cc2ccc(OCc3ccccc3)cc2)CC1)N1CCCC1 | -47.1
Cc1ccc(NS(=O)(=O)c2cc(C(=O)N3CCCC3)ccc2C)cc1C | 7.04

SMILES | hERG current change (%, negative = inhibition) at 10uM [%]
O=C(NCCc1ccc(Cl)cc1)C1CCCN1C(=O)Nc1ccc(F)cc1 (stereo not shown) | -31.3
O=C(CSc1nnc(-c2ccncc2)o1)c1ccc2c(c1)OCCO2 | 9.18
Cc1ccc(Cc2c(C)nc3nc(SCC(=O)NCCCN4CCCCC4)nn3c2C)cc1 | -42.7
COc1ccc2oc(C(=O)NCC(Cc3ccccc3)N(C)C)c(C)c2c1 (stereo not shown) | -37.6
CCC(C)(C)NS(=O)(=O)c1cc(CN2C(=O)c3cccnc3C2=O)ccc1OC | 10.7
O=C(c1ccccc1F)N1CCN(c2ccc([N+](=O)[O-])c(NCC3CCCO3)c2)CC1 (stereo not shown) | -80.8
CCOc1ccc(C(=S)NC2CCCCC2)cc1OCC | -7.96
CCOC(=O)C1=NN(c2cccc(Cl)c2)C2=NC(C)=C(C(=O)OC)C(c3cccs3)N12 (stereo not shown) | 6.72
COc1ccc(C(=O)Nc2ccccc2C(=O)NCC2CCCO2)cc1 (stereo not shown) | 4.28
Cc1nc2ccccc2nc(C)c1=NOCc1cccc(Cl)c1 | -7.4
COc1ccc(/C=N/OCC(=O)NCC(C)C)c(OC)c1 | 1.44
Cc1nc2ccccn2c1-c1csc(NCc2ccco2)n1 | -74.6
O=c1[nH]c2ccccc2c(O)c1-c1cc2ccccc2oc1=O | 27.9
CCCCN(Cc1ccccc1)C1CCN(CCc2ccccc2)CC1 | -72.2
O=C(Cc1nc2ccccc2[nH]1)c1ccc([N+](=O)[O-])cc1 | -2.13
COc1ccccc1Nc1nc(C2(C)CCC(=O)O2)cs1 (stereo not shown) | -13
O=C(Nc1ccc2c(c1)OCCO2)c1c(F)cccc1F | 6.29
COc1ccc(C)c2sc(NC(=O)C3=COCCO3)nc12 | 13.3
COc1ccccc1CCNC(=O)C(=O)NCC1OCCCN1S(=O)(=O)c1ccc(F)cc1C (stereo not shown) | -12.6
CCOc1cccc(NC(=O)C2CCCN(S(=O)(=O)c3ccc(OC)cc3)C2)c1 (stereo not shown) | -11
O=C(/C=C/c1ccc2c(c1)OCO2)Nc1nc(-c2ccc(F)cc2)cs1 | 6.25
CS(=O)(=O)Nc1ccc(C(=O)NCCSC2CCCCC2)cc1 | -20.5

SMILES | hERG current change (%, negative = inhibition) at 10uM [%]
CC(=O)c1c(C(C)=O)c(C)n(-c2ccc(N)cc2)c1C | 0.535
CC(C)C(NC(=O)C1CCCCC1)C(=O)N1CCN(c2ccc(F)cc2)CC1 (stereo not shown) | -55.7
Cc1ccc(S(=O)(=O)CC2CSc3nc4ccccc4n32)cc1 (stereo not shown) | -34.3
Cn1cnc([N+](=O)[O-])c1Oc1ccc2ccccc2c1 | -0.963
Clc1ccc(OCCCNCc2ccccc2)c(Br)c1.O=C(O)C(=O)O | -64.4
Cc1c(Cl)cnc(NC(=O)COC(=O)c2cccs2)c1Cl | 9.57
Cc1cccc(OCC(=O)NC2CCCCCC2)c1C | 3.98
CN(C)C(=O)C1(c2ccccc2)CCN(S(=O)(=O)c2ccccc2)CC1 | 12.9
CC(C)CC(=O)N1CCN(C(=O)CCC2CCCC2)CC1 | 1.8
Cc1csc(NC(=O)CN2C(=O)c3ccccc3S2(=O)=O)n1 | 7.89
COc1ccccc1CN(C(=O)c1ccco1)C(C(=O)NC1CCCC1)c1ccncc1 (stereo not shown) | -8.04
Cc1ccc(C2(C)NC(=O)N(CC(=O)Nc3c(C)n(C)n(-c4ccccc4)c3=O)C2=O)cc1 (stereo not shown) | 7.86
CC(C)Cn1c(N)c(C(=O)COC(=O)c2ccccc2Cl)c(=O)n(C)c1=O | -41.7
C=C(C(=O)Nc1ccccc1)c1ccc(C)cc1 | -4.77
O=C(O)/C=C/C(=O)NCCC1=CCCCC1 | 15
CCOC(=O)c1ccc(NC(=O)COc2ccc(CNC3CCCCC3)cc2OC)cc1 | -26
O=[N+]([O-])c1cnn2cc(Br)cnc12 | 10.2
Cn1c(NC(=O)c2ccc(F)cc2)c(-c2cccs2)c(=O)c2ccccc21 | 8.27
O=C(CSc1nnc(SCc2cccc3ccccc23)s1)Nc1ccc(C(=O)O)cc1 | 15
CCc1ccc(NC(=O)C(=O)c2cn(CC(=O)N3CCCCC3)c3ccccc23)cc1 | 12.5
CCC(C(=O)Nc1cccc(S(=O)(=O)N(C)c2ccccc2)c1)c1ccccc1 (stereo not shown) | -3.74
COc1cc(C2NC(=S)NC(c3ccccc3)=C2C(C)=O)cc(Cl)c1OCC(=O)O (stereo not shown) | 5.99
